# Experimental data reported in the supplement of paper PMC11880418.
# Structures can show the parent of a compound that is named as a salt. The list shows a part of the results. The data scatter; read single values as rough.
# Test system: PANC1
# Test: ALDHbr (CSC) cell proportion score relative to DMSO vehicle (ratio to DMSO); breast (SUM159) / gastric (MKN45) / pancreatic (PANC1) / colon cancer lines; ALDHbr cells have high ALDH activity and are rich in cancer stem cells (CSC); higher = more CSC (ALDHbr) cells remaining
# Settings: 10 µM; 72 h
# 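Also: High-content imaging of ALDEFLUOR-stained cells with Hoechst-labelled nuclei in 384-well plates, triplicate wells, scored as Z-score against 0.1% DMSO vehicle, negative meaning fewer ALDHbr cells.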
row,SMILES,ALDHbr
1,O=C(CCCN1CCC(n2c(=O)[nH]c3ccccc32)CC1)c1ccc(F)cc1 [Benperidol],0.796
2,CC(C)(C)NCC(O)c1ccccc1Cl (stereo not given) [Tulobuterol],0.82
3,CN[C@@H]1[C@@H](O)[C@@H](O[C@@H]2[C@@H](O)[C@H](O[C@H]3O[C@H](CN)CC[C@H]3N)[C@@H](N)C[C@H]2N)OC[C@]1(C)O.CN[C@@H]1[C@@H](O)[C@@H](O[C@@H]2[C@@H](O)[C@H](O[C@H]3O[C@H]([C@@H](C)N)CC[C@H]3N)[C@@H](N)C[C@H]2N)OC[C@]1(C)O.CN[C@@H]1[C@@H](O)[C@@H](O[C@@H]2[C@@H](O)[C@H](O[C@H]3O[C@H]([C@@H](C)NC)CC[C@H]3N)[C@@H](N)C[C@H]2N)OC[C@]1(C)O [Gentamicine sulfate],0.845
4,CC[C@@H](C(N)=O)N1CCCC1=O [Levetiracetam],0.884
5,C=C(C)[C@@H]1[C@H]2OC(=O)[C@@H]1[C@]1(O)C[C@H]3O[C@]34C(=O)O[C@H]2[C@]14C [Picrotoxinin],0.964
6,Oc1cc(Cl)ccc1Oc1ccc(Cl)cc1Cl [Triclosan],0.996
7,CC(Cc1ccc(O)cc1)NCC(O)c1cc(O)cc(O)c1 (stereo not given) [Fenoterol hydrobromide],0.743
8,C=CC[C@]1(O)CC[C@H]2[C@@H]3CCC4=CC(=O)CCC4=C3C=C[C@@]21C [Altrenogest],0.811
9,COc1ccc(OC)c(C(O)C(C)N)c1 (stereo not given) [Methoxamine hydrochloride],0.915
10,Cc1cc(C(C#N)c2ccc(Cl)cc2)c(Cl)cc1NC(=O)c1cc(I)cc(I)c1O (stereo not given) [Closantel],1.03
